# Results from paper PMC4336329 (PLoS ONE, 2015).
# The campaign covered roughly 310,000 compounds. About 14,000 (4.5%) showed an effect of 50% or more. Effects have a minus sign here. Some of the results follow.
# Molecular target: human ether-à-go-go-related gene (hERG) potassium channel (human, UniProt Q12809)
# Test: primary screen, population patch clamp on CHO cells stably expressing hERG
# 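Also: peak tail current of the secondary pulse compared with the same well before compound.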
# Sequence of human ether-à-go-go-related gene (hERG) potassium channel (Q12809 whole entry, looked up): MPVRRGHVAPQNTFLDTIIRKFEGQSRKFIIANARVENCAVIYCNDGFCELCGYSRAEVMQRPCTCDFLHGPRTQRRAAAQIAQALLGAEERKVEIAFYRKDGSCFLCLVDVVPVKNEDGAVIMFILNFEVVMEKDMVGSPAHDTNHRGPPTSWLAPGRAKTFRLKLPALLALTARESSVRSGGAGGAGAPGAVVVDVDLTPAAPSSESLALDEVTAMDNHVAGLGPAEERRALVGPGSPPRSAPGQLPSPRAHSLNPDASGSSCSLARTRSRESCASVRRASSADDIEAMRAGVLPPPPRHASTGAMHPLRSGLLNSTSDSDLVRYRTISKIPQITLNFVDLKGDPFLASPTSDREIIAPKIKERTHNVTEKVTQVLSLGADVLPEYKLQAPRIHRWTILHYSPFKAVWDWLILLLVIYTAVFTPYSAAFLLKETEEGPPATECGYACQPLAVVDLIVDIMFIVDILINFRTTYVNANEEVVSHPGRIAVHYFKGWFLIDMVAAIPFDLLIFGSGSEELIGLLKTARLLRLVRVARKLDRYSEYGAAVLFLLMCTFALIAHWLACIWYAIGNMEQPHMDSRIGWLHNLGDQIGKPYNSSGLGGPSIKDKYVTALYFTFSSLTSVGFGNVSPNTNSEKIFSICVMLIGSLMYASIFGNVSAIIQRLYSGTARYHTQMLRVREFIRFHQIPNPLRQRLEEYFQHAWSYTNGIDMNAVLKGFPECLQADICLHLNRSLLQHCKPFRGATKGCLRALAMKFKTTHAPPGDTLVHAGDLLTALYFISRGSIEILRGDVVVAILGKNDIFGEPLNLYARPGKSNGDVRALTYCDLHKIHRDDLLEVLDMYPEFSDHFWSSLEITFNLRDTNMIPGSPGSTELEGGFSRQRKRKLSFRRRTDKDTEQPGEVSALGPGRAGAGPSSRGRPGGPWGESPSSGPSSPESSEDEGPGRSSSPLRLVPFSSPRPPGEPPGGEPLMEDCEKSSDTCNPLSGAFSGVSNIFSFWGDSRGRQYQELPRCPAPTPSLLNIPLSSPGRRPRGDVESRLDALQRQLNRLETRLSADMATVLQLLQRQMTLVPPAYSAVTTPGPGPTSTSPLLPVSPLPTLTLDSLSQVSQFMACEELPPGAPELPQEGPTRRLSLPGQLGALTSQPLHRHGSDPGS
row,Compound,"hERG current change (%, negative = inhibition) at 10uM"
1,CC(C)(C)[C@H]1C=C(C(=O)N2CCN(Cc3ccc4c(c3)OCO4)CC2)O[C@@H](OCCCCO)C1,-23.4%
2,Cc1ccc(C(=O)Nc2ccccc2C(=O)N2CCCC(C)C2)cc1 (stereo not shown),-0.444%
3,C[C@@H](C(=O)Nc1ccc2ccccc2c1)[C@@H]1C[C@@]1(C)[C@@H](NC(=O)c1cccnc1)c1ccccc1,-3.53%
4,CCOC(=O)COc1ccc(/C=C2/C(=O)NN(c3ccc(F)cc3)C2=O)cc1OC,12.4%
5,Cc1ccc(C(=O)NCC(=O)N(C)CC(=O)Nc2c(Cl)cccc2Cl)s1,7.65%
6,Br.CC(C)CC(N)C(=O)OCc1ccc([N+](=O)[O-])cc1 (stereo not shown),7.33%
7,COCCNC(=O)C(c1ccccc1C)N(C(=O)Cn1nnc2ccccc21)c1cccnc1 (stereo not shown),14.5%
8,Cc1ccc(S(N)(=O)=O)cc1,21.4%
9,[N-]=[N+]=N[C@@H](CCN1CC[C@H](NC(=O)OCc2ccccc2)CCC1=O)c1ccccc1,-43.5%
10,O=C(CCCc1nc2ccccc2s1)N1CCN(c2ccccc2)CC1,-39.9%
11,CSc1nnc(C)c(=O)n1COC(=O)c1ccccc1,-3.19%
12,CCOC(=O)CC(NC(=O)Cn1nnc(-c2ccccc2F)n1)c1ccccc1Cl (stereo not shown),12.1%
13,Cc1c(C)n(C(=O)CSc2nc3ccccc3[nH]2)c2ccccc12,7.29%
14,CC(=O)c1cccc(NC(=O)N2CCC(NC(=O)C3CCCCC3)CC2)c1,7.09%
15,OCCCc1cn(-c2ccccc2)c2ccccc12,7.41%
16,CCOC(=O)C1C(=O)NC(N2CCOCC2)=NC1c1ccco1 (stereo not shown),10.7%
17,Cc1ccc(C(NC(=O)c2ccccc2S(C)(=O)=O)c2ccccc2)cc1 (stereo not shown),-30.3%
18,CCOC(=O)c1c(C)c(C(=O)NCCN2CCOCC2)c(C)n1C,15.1%
19,O=C(CN1C(=O)NC2(CCCC2)C1=O)c1ccc(Cl)s1,3.4%
20,Cc1nn(C)c(C)c1CN(Cc1nc(-c2cc(F)ccc2F)oc1C)C1CC1,-8.99%
21,Nc1nc(SCC(=O)Nc2c(Br)cc([N+](=O)[O-])cc2Br)n[nH]1,10.5%
22,Cc1ccc(NS(=O)(=O)c2ccc3c(c2)CCC(=O)N3)cc1,-2.02%

row,Compound,"hERG current change (%, negative = inhibition) at 10uM"
1,Cc1ccc(N/C=C2/Sc3ccccc3NC2=O)cc1,-0.823%
2,COCCNC(=O)Cc1ccc(F)cc1,5.57%
3,CCCCC(=NCCO)C1=C(O)C(C(=O)OC)C(C)(C)CC1=O (stereo not shown),13.1%
4,CCOc1cccc(-c2nn3c(-c4ccco4)nnc3s2)c1,-49.4%
5,CCN(CC(=O)Nc1ccc(NC(C)=O)cc1)C(=O)COc1ccc(C(=O)c2ccccc2)cc1,0.309%
6,C/C(=N\Nc1ncnc2sc(C)c(C)c12)c1ccccn1,-35.5%
7,O=C(Nc1ccccc1C(=O)O)c1cc(S(=O)(=O)N2CCCCCC2)ccc1Cl,11.6%
8,O=C(Cn1c2ccc(F)cc2c2nc3n(c(=O)c21)CCS3)N1CCCC1,6.84%
9,CCNC(=O)c1ccccc1-c1nc(-c2ccccc2Cl)no1,-5.83%
10,COc1ccccc1N1CCN(S(=O)(=O)c2cc3[nH]c(=O)c(=O)[nH]c3cc2C)CC1,12.1%
11,C[C@@H](O)[C@H]1C(=O)N2C(C(=O)O)=C(S[C@@H]3CN[C@H](C(=O)N(C)C)C3)[C@H](C)[C@H]12,21.1%
12,O=C(COc1ccc(Br)cc1)N1CCN(c2ncccn2)CC1,-83.7%
13,O=C(OC(C(=O)NCC1CCCO1)c1ccccc1F)c1ccco1 (stereo not shown),14.5%
14,O=C(Nc1nc2c(s1)CN(Cc1ccccc1)CC2)c1c(F)cccc1F,-8.2%
15,O=C(CN1CCN(c2ccccc2O)CC1)NC(=O)NCc1ccco1,-2.83%
16,NC(=O)C1=C[C@@H](c2coc3ccccc3c2=O)C[C@@H](OCCCCO)O1,4.57%
17,CN(CC(=O)Nc1ccccc1Br)C(=O)CN1CCN(c2ccccc2Cl)CC1,-29.6%
18,Cc1ccc(S(=O)(=O)N2CCC(C(=O)Nc3ccccc3N3CCCCC3)CC2)cc1C,-9.46%
19,Cc1c(Cl)cccc1-c1ccc(CNCc2ccccn2)o1.Cl,8.15%
20,NS(=O)(=O)c1ccc(CCNS(=O)(=O)c2cccs2)cc1,8.29%
21,CC1C(Br)C(=O)NC(=O)N1Cc1ccccc1 (stereo not shown),17%
22,CCOC(=O)c1c(C)[n+]([O-])c2ccc3c(non3O)c12,21.6%

row,Compound,"hERG current change (%, negative = inhibition) at 10uM"
1,O=S(=O)(Nc1c(F)cccc1F)c1ccc2c(c1)OCCO2,9.82%
2,CC(=O)c1ccc(NC(=O)c2sc3nc4n(c(=O)c3c2C)CCCCC4)cc1,-0.301%
3,CCOC(=O)Cc1c(C)nc(SC)[nH]c1=O,17.8%
4,COc1cc(C(C)=O)ccc1OCCCN1CCC(Cc2ccccc2)CC1.O=C(O)C(=O)O,-77.9%
5,Cc1ccc2c(c1)C1NC(=S)NC(C)(O2)C1C(=O)Nc1ccc(Cl)cc1 (stereo not shown),8.39%
6,O=c1[nH]cc(S(=O)(=O)N2CCN(c3cccc(Cl)c3)CC2)c(=O)[nH]1,-17.3%
7,O=C(CN(C(=O)CCC(=O)Nc1ccccn1)c1cccc(F)c1)NCc1ccc(F)cc1,-4.26%
8,O=C(NCc1ccccc1Cl)c1cccc(C(F)(F)F)c1,-9.11%
9,Cc1csc2c(N3CCN(C(=O)c4ccc(C(C)(C)C)cc4)CC3)ncnc12,-33%
10,Cn1c(C(=O)NCc2ccccn2)cc2c(=O)n3ccccc3nc21,-1.42%
11,Cc1cc(=O)oc2cc(OC(=O)C3CCN(C(=O)c4ccc(F)cc4)CC3)ccc12,3.43%
12,CCOC(=O)c1cc(-c2ccc(C)c([N+](=O)[O-])c2)nc2c1c(=O)n(C)c(=O)n2C,-6.2%
13,COC(=O)C1CSc2[nH]c(=O)sc2C1c1ccc(OC)c(OC)c1 (stereo not shown),0.0419%
14,COc1ccc(C(=O)O/N=C(\C)c2cnccn2)cc1,8%
15,Oc1cc2ccccc2cc1-c1nnc2n1-c1ccccc1SC2,-8.27%
16,CCOC(=O)C1CCN(c2c(NCCN(CC)c3ccccc3)c(=O)c2=O)CC1,-14.4%
17,c1ccc(-c2cnnc(N3CCOCC3)n2)cc1,-4.16%
18,CNc1nc(N)c([N+](=O)[O-])c(Nc2cccc(F)c2)n1,16.3%
19,O=C(c1cc2c([nH]c1=O)CCCC2)N1CCc2c([nH]c3ccccc23)C1c1ccccc1F (stereo not shown),-4.1%
20,O=C1C(Cl)=C(NCCN2CCCCC2)C(=O)c2ccccc21,-45.3%
21,CCCCCCC(=O)NNC(=O)CC(=O)Nc1ccccc1C(=O)O,24.4%
22,O=C(NC(=S)NCCC1=CCCCC1)c1cncc(Br)c1,17.4%

row,Compound,"hERG current change (%, negative = inhibition) at 10uM"
1,CCC(=O)Nc1ccc(Nc2nc(Cl)nc(Nc3ccc(NC(=O)CC)cc3)n2)cc1,14.8%
2,CC(c1ccccc1)C(NC(=O)OCC1c2ccccc2-c2ccccc21)C(=O)O (stereo not shown),7.8%
3,Cc1ccc(N2C(N)=C(C#N)C(c3cccs3)C3=C2CC(C)(C)CC3=O)cc1 (stereo not shown),-21.3%
4,Cc1cc(C)cc(OCC(O)CN2CCN(C(=O)c3ccco3)CC2)c1 (stereo not shown),-43.7%
5,O=C(NCc1ccc2c(c1)OCO2)C1CCCN1C(=O)Nc1ccccc1 (stereo not shown),-31.6%
6,COc1cc(CN2CC(C)OC(C)C2)cc(OC)c1 (stereo not shown),-10.8%
7,CN(C)CC1CSCCC1(O)c1ccccc1.Cl (stereo not shown),2.12%
8,Cc1cc(C)c2nc(C)cc(Nc3ccc(C(=O)N4CCOCC4)cc3)c2c1,-43.8%
9,CCOc1ccc(-c2cccc(NS(=O)(=O)c3cc([N+](=O)[O-])ccc3C)c2)nn1,-25%
10,O=S(=O)(Cc1ccccc1)Nn1cnnc1,11.4%
11,Clc1ccc(/C=N/Nc2ccccn2)cc1,14.7%
12,CN(C(=O)c1ccc2c(=O)n3c(nc2c1)CCCCC3)c1ccccc1,9.53%
13,O=C(Nc1ncn[nH]1)c1ccc([N+](=O)[O-])cc1[N+](=O)[O-],18.2%
14,CCCCCCc1c(O)c2ccccc2[nH]c1=O,-4.9%
15,CCN1CCN(CCCNC(=O)c2ccc3c(Cl)c4c(nc3c2)CCCC4)CC1,-46.8%
16,Cc1ccccc1N1CC(C(=O)Nc2ccc(S(=O)(=O)N3CCOCC3)cc2)CC1=O (stereo not shown),-2.57%
17,CC1CN=C(N(C(=O)Nc2ccccc2)c2ccc(S(=O)(=O)N3CCOCC3)cc2)S1 (stereo not shown),-15.8%
18,CC(C)SCc1nc2ccccc2[nH]1,-3.73%
19,CCCS(=O)(=O)N1CCC(C(=O)NCc2ccccc2Cl)CC1,0.853%
20,CCc1c(C)nc2nc(NC(C)=O)[nH]n2c1=O,15%
21,O=C(Cc1cccs1)NNC(=S)NC(=O)c1ccc(F)c(F)c1,12.2%
22,O=C(Oc1ccc(=O)n(-c2ccccc2)n1)c1ccc(Cl)cc1,1.87%
